# Results from paper PMC4336329 (PLoS ONE, 2015).
# The whole screen tested about 310,000 compounds, of which about 2,200 (0.71%) showed an effect of 50% or more. Effects have a minus sign here. The list shows a part of the results.
# Biological target: human ether-à-go-go-related gene (hERG) potassium channel (human, UniProt Q12809)
# Experiment: primary screen, population patch clamp on CHO cells stably expressing hERG
# Chain of human ether-à-go-go-related gene (hERG) potassium channel (Q12809 whole entry, looked up): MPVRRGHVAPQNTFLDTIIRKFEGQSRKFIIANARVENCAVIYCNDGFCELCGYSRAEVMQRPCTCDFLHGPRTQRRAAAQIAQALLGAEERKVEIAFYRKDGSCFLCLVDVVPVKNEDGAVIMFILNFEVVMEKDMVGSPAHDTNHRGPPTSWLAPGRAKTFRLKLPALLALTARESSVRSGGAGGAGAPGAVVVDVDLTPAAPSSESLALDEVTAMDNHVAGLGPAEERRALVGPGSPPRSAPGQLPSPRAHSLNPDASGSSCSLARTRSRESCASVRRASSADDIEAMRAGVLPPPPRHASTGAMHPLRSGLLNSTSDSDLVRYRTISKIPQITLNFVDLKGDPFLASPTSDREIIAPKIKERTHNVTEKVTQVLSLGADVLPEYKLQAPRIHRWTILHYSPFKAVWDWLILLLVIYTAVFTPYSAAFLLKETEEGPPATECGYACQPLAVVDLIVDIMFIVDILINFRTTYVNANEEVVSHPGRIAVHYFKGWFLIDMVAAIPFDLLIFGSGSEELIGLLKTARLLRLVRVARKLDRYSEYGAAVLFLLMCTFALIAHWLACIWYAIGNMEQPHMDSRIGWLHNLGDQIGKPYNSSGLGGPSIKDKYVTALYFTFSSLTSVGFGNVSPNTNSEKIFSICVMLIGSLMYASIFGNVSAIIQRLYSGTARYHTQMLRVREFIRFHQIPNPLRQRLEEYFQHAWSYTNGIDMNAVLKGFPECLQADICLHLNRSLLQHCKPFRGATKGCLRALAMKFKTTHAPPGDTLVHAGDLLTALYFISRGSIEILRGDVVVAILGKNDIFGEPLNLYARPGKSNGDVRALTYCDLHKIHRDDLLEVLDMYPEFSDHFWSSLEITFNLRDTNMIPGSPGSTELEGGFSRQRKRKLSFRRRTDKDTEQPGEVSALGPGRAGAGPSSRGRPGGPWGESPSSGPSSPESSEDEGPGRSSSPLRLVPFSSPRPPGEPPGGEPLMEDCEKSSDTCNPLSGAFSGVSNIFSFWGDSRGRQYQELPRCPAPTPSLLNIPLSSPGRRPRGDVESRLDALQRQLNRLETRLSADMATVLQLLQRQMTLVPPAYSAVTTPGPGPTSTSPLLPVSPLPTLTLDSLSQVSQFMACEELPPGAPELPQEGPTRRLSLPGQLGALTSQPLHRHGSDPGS
row,SMILES,"hERG current change (%, negative = inhibition) at 1uM"
1,COc1ccc(C(c2nnnn2Cc2cccs2)N2CCN(c3ccccc3)CC2)cc1OC (stereo not drawn),-18.3%
2,Cc1ccccc1C(=O)N1CCC(C(=O)Nc2cccc(S(=O)(=O)N3CCCCC3)c2)CC1,-4.43%
3,CCn1c2ccccc2c2nnc(SCc3ccccc3)nc21,6.55%
4,COCc1c(C#N)c(NCCc2ccccc2)nc(C)c1[N+](=O)[O-],13.6%
5,CCC1(CC)NC(=O)N(CC(=O)OC(C)C(=O)Nc2ccc(NC(C)=O)cc2)C1=O (stereo not drawn),4.44%
6,O=C(CN1CCN(c2nc(-c3ccc(F)cc3)cs2)CC1)Nc1ccc2c(c1)OCO2,2.97%
7,CC(=O)c1ccc(OCC(O)CN2CCN(Cc3ccccc3)CC2)cc1.Cl (stereo not drawn),-21%
8,C=CCOc1ccc(C2/C(=C(\O)c3ccc(F)cc3)C(=O)C(=O)N2CCCN(C)C)cc1 (stereo not drawn),23.3%
9,CCOC(=O)N1CCN(C(=O)/C(=C/c2ccc(F)cc2)NC(=O)c2ccccc2)CC1,-10.2%
10,O=C(NNC(=O)C1CCCO1)c1ccc(F)cc1 (stereo not drawn),17.4%
11,Cc1cc(C)c2c(CN3CCCCC3C)cc(=O)oc2c1.Cl (stereo not drawn),12.5%
12,CCN(CC)C(=O)CSc1nnc(-c2ccc(F)cc2)n1N,7.96%
13,Cc1ccc(C(=O)NCc2ccccn2)cc1S(=O)(=O)N1CCOCC1,16%
14,Cc1ccccc1N(CC(=O)NCCc1ccccc1)C(=O)CCC(=O)Nc1ccccn1,13.2%
15,CN1CCN(S(=O)(=O)c2cccc(C(=O)Oc3ccccc3Cl)c2)CC1,0.38%
16,CCOC(=O)Cn1c(S(=O)(=O)Cc2ccccc2)nc2ccccc21,3.66%
17,O=C(O)c1cccc(N2C(=O)c3ccc4c5c(ccc(c35)C2=O)C(=O)N(c2cccc(C(=O)O)c2)C4=O)c1,4.56%
18,CCOc1ccc(S(=O)(=O)N2CCCC(C(=O)NCc3ccccn3)C2)cc1C (stereo not drawn),4.95%
19,O=C(Nc1nc(-c2ccccc2)cs1)c1ccc(N2CCOCC2)c([N+](=O)[O-])c1,31.6%
20,COc1cccc(/C=N/n2cnnc2)c1OCc1ccccc1,-5.96%
21,O=C1c2cc(F)ccc2-n2c1nc1ccccc1c2=O,8.96%

row,SMILES,"hERG current change (%, negative = inhibition) at 1uM"
1,Fc1ccc(/C=N/NC(=S)Nc2cccnc2)cc1,13.4%
2,CCC(=O)c1ccc2c(c1)N(CCCN(C)C)c1ccccc1S2.Cl,-1%
3,CC(C)Cc1nc2oc3c(NCC(C)O)ncnc3c2c2c1CCCC2 (stereo not drawn),4.92%
4,Cc1cc(=O)[nH]c(N/N=C/c2ccc(Br)s2)n1,-0.312%
5,COc1cc(/C=N/Nc2ccc(Cl)c(C(=O)O)c2)ccc1OC(=O)c1ccco1,12%
6,O=C(CC1C(=O)NCCN1CC1CCCCC1)NCc1ccccc1Cl (stereo not drawn),9.89%
7,Cc1ccc(-c2nnn(CC(=O)Nc3cccc4cccnc34)n2)o1,-5.28%
8,COc1ccc(OCCN2CCN(C3CC(=O)N(CCC(C)C)C3=O)CC2)cc1 (stereo not drawn),-22.5%
9,CCC1c2ccc(C)n2CCN1C(=O)Nc1ccccc1OC (stereo not drawn),10.6%
10,C/C=C/c1ccc(OCCOc2cccc3cccnc23)c(OC)c1,22.9%
11,O=c1ccc(-c2ccc([N+](=O)[O-])cc2)nn1-c1ccccc1,5.04%
12,CCN1CCC2(CCN(C(=O)c3cc(COc4cc(C)ccc4C)on3)C2)C1 (stereo not drawn),5.57%
13,CCOc1ccc(-c2nn3c(-c4ccccc4)nnc3s2)cc1,-3.81%
14,C[C@@]12C(=O)N(c3ccc(F)cc3)C(=O)N1[C@@H]1c3ccccc3OC[C@@H]1[C@H]2c1ccccc1,10.1%
15,CN(Cc1nc2ccccc2n1C)c1ccccc1,12.3%
16,COc1ccc(NC(=O)[C@@H]2[C@@H]3C(=O)N(C4CCCCC4)C(=O)[C@@H]3C3c4ccccc4C=CN32)cc1 (stereo partly drawn),11.4%
17,CC(C)NC(=O)c1ccc(N(Cc2ccccc2)S(C)(=O)=O)cc1,15.3%
18,CCCCn1c(N)c(N(Cc2ccccc2OC)C(=O)CC2OC(=O)c3ccccc32)c(=O)[nH]c1=O (stereo not drawn),11.6%
19,CC(C)CN(C(=O)COC(=O)/C=C/c1cccs1)c1c(N)n(Cc2ccccc2)c(=O)[nH]c1=O,10.1%
20,CC(=O)Nc1ccc(NC(=O)C(C)OC(=O)c2ccccc2Sc2ccccc2C#N)cc1 (stereo not drawn),-7.16%
21,Cc1ccc(C)c(S(=O)(=O)N2CCN(C(=O)C3CCN(c4ncnc5sc(C)c(C)c45)CC3)CC2)c1,-12%

row,SMILES,"hERG current change (%, negative = inhibition) at 1uM"
1,CCC1C(=O)c2ccccc2N(C)C1=O (stereo not drawn),10.9%
2,COc1ccc(N(C)C(=O)c2oc(=O)c3ccccc3c2-c2ccccc2)c(OC)c1,7.8%
3,COc1ccc(-c2nc(N)nc(C(F)(F)F)c2-c2cscn2)c(O)c1,8.15%
4,C=CCOC(Cn1ccnc1)c1ccc(Cl)cc1Cl (stereo not drawn),-6.04%
5,OC1(c2ccccc2F)CC2CCC(C1)N2CCN1CCOCC1 (stereo not drawn),13.3%
6,O=C(CN(c1ccccc1)S(=O)(=O)c1ccccc1[N+](=O)[O-])Nc1cccnc1,3.34%
7,Cc1cccc2sc(NC(=O)[C@H](C)N3C(=O)C4CC=CCC4C3=O)nc12 (stereo partly drawn),0.286%
8,CCOC(=O)CCn1nnc(N)n1,18.5%
9,CCn1c(SCC(=O)NC2CCCC2)nnc1-c1ccncc1,13.6%
10,CN(Cc1ccccc1)C(=O)CCC1CCN(C(=O)CCC(F)(F)F)CC1,15.6%
11,O=C(Nc1nc2c(s1)CCCC2)c1ccc2ncsc2c1,10.6%
12,Cc1ccc2nc(SC(C(=O)Nc3ccc(F)cc3)c3ccccc3)[nH]c2c1 (stereo not drawn),11%
13,O=C(CSc1n[nH]c(=O)n1-c1ccc2c(c1)OCCO2)Nc1ccccc1,4.53%
14,O=C(CS(=O)(=O)c1ccc(Cl)cc1)Nc1nnc(-c2cccs2)o1,23.9%
15,Cc1c(Cl)ccc2c1NC(=O)[C@]21N[C@@H](Cc2ccccc2)[C@H]2C(=O)N(c3ccc(F)cc3)C(=O)[C@H]21,13.3%
16,O=C1/C(=C/c2cccs2)SC(=S)N1N1CCOCC1,11.2%
17,CCOC(=O)CSc1nc2c(c(=O)n1-c1ccc(OCC)cc1)SCC2,16.5%
18,O=C(Nc1ccc(-c2cscn2)cc1)C1CCCN(Cc2ccccc2)C1 (stereo not drawn),7.14%
19,Cc1noc(C)c1COc1ccc(C(=O)OCC(=O)Nc2ccc(S(N)(=O)=O)cc2)cc1,6.58%
20,CCn1nc(C)c(/C=C2\CCCC3=C2OC(N)=C(C#N)C3c2c(C)nn(CC)c2C)c1C (stereo not drawn),21.9%
21,N#Cc1ccc(CSc2nnc(-c3cccs3)n2-c2ccccc2)cc1,-20.8%

row,SMILES,"hERG current change (%, negative = inhibition) at 1uM"
1,COc1ccc(C(=O)Nc2ccc(N3CCOCC3)cc2)cc1S(=O)(=O)NC1CCCC1,6.31%
2,Cc1cccc(C)c1NC(=O)c1cnn(-c2ccccc2)c1C,11.1%
3,Cc1ccc(S(=O)(=O)NCc2ccccc2)cc1C(=O)N1CC(C)CC(C)C1 (stereo not drawn),-2.4%
4,COc1ccc(N2CCN(C(=O)COC(=O)CCOc3ccccc3C)CC2)cc1,-25.7%
5,COc1ccc(S(=O)(=O)N2CCOC2CNC(=O)C(=O)NCCCN2CCOCC2)cc1C (stereo not drawn),11.7%
6,COc1cc(CCC(=O)OCC(=O)Nc2ccccc2C#N)cc(OC)c1OC,8.68%
7,CCCCCCCNC(=O)C1(CC2CC(c3cccc(Br)c3)=NO2)CCN(C(=O)CCCCCBr)CC1 (stereo not drawn),-72%
8,CC(=O)Nc1ccc(Oc2cc(N)cc([N+](=O)[O-])c2)cc1,9.97%
9,O=C(Cc1ccc(Cl)cc1)Nc1ccccc1Sc1ccccc1,4.55%
10,C#CCOCCOCCOCCNc1nc(N2CCN(C(=O)CCCCCCCCCCNC(=O)Cn3cc(CCCCCN)nn3)CC2)nc(N2CCN(C(=O)CCCCCCCCCCNC(=O)Cn3cc(C[C@@H](C)O)nn3)CC2)n1,11.4%
11,COc1ccc(NC(=O)CN(c2ccc(Cl)cc2)S(C)(=O)=O)cc1OC,8.19%
12,CCOC(=O)N1CCC(Nc2nc3ccccc3n3cnnc23)CC1,7.71%
13,Cc1ccc(CNC(=O)C2=NNC(=O)CC2)cc1,4%
14,O=C(Cc1ccc(S(=O)(=O)N2CCOCC2)s1)Nc1cc(C(F)(F)F)cc(C(F)(F)F)c1,16.4%
15,CC(=O)N1N=C(c2ccc(Cl)cc2)OC1(C)C,11.4%
16,CCn1c(NC(=O)Nc2ccccc2OC)nc2ccccc21,-6.96%
17,CC1(C)CC(NC(=O)COc2ccc(Br)cc2Cl)CC(C)(C)N1,10.8%
18,c1ccc2c(-c3csc(-c4ccncc4)n3)c[nH]c2c1,10.8%
19,Cc1ccc(-n2c(=O)[nH]c3c(C(N)=O)nc(-c4ccc(C)o4)nc32)cc1,9.41%
20,Cc1ccc(C(=O)NC(C(=O)Nc2ccccc2)c2ccccc2)cc1 (stereo not drawn),17.3%
21,O=C(Cn1c(O)c(/C=C2\C=Nc3ccc(Br)cc32)sc1=O)N1CCCC1,2.96%
